In the supplement of paper PMC9911699:
The other results are listed elsewhere or left out.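 How the source made its calls: active = average curve height above 101 Omnilog units; inactive = average height at or below 101.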 Repeats are few or missing, and single values can be far off.

Experiments:
[1] = system: Acinetobacter baumannii AB6870155; experiment: respiration area under curve on compound as sole carbon source (Biolog PM, 48 h) (arbitrary Omnilog units x h (AUC)); higher = more carbon source utilisation / respiration; details: Biolog inoculating fluid, temperature: 37 °C
[2] = system: Klebsiella pneumoniae KP6870155; experiment: as above; details: Biolog inoculating fluid, temperature: 37 °C

SMILES: O=C(O)C[C@H](O)C(=O)O [L-Malic Acid]
- respiration area under curve [1]: active: 11600
- respiration area under curve [2]: active: 11200

SMILES: OC[C@H]1O[C@@H]2O[C@H]3[C@H](O)[C@@H](O)[C@@H](O[C@H]4[C@H](O)[C@@H](O)[C@@H](O[C@H]5[C@H](O)[C@@H](O)[C@@H](O[C@H]6[C@H](O)[C@@H](O)[C@@H](O[C@H]7[C@H](O)[C@@H](O)[C@@H](O[C@H]1[C@H](O)[C@H]2O)O[C@@H]7CO)O[C@@H]6CO)O[C@@H]5CO)O[C@@H]4CO)O[C@@H]3CO [Alpha-Cyclodextrin]
- respiration area under curve [1]: inactive: 2100
- respiration area under curve [2]: inactive: 4330

SMILES: OC[C@H]1O[C@H](O)[C@H](O)[C@@H](O)[C@@H]1O [Alpha-D-Glucose]
- respiration area under curve [1]: active: 9030
- respiration area under curve [2]: active: 10800

SMILES: COC1OCC(O)C(O)C1O [Beta-Methyl-D-Xyloside]
- respiration area under curve [1]: inactive: 1930
- respiration area under curve [2]: inactive: 4260

SMILES: CC(=O)N[C@H]1C(O)O[C@H](CO)[C@H](O)[C@@H]1O (stereo partly drawn) [N-Acetyl-D-Galactosamine]
- respiration area under curve [1]: inactive: 2000
- respiration area under curve [2]: inactive: 4160

SMILES: NC(=O)CC[C@H](N)C(=O)O [L-Glutamine]
- respiration area under curve [1]: active: 12500
- respiration area under curve [2]: active: 12100

SMILES: CO[C@@H]1O[C@H](CO)[C@H](O)[C@H](O)[C@H]1O [Beta-Methyl-D-Galactoside]
- respiration area under curve [1]: inactive: 1520
- respiration area under curve [2]: active: 11300

SMILES: NCCCCC(=O)O [Delta-Amino Valeric Acid]
- respiration area under curve [1]: inactive: 1650
- respiration area under curve [2]: inactive: 4620

SMILES: O=C1O[C@H]([C@@H](O)CO)[C@@H](O)[C@@H]1O [L-Galactonic Acid-Gamma-Lactone]
- respiration area under curve [1]: inactive: 2570
- respiration area under curve [2]: active: 8340

SMILES: O=C(O)CC(O)(CC(=O)O)C(=O)O [Citric Acid]
- respiration area under curve [1]: active: 9470
- respiration area under curve [2]: active: 10600

SMILES: N[C@H](CC(=O)O)C(=O)O [D-Aspartic Acid]
- respiration area under curve [1]: inactive: 1670
- respiration area under curve [2]: inactive: 4000

SMILES: O=C(O)CC(O)C(=O)O (racemic) [D,L-Malic Acid]
- respiration area under curve [1]: active: 11400
- respiration area under curve [2]: active: 11100

SMILES: COC(=O)C(C)=O [Methyl Pyruvate]
- respiration area under curve [1]: active: 11200
- respiration area under curve [2]: active: 10500

SMILES: CC(C)[C@H](N)C(=O)O [L-Valine]
- respiration area under curve [1]: inactive: 1790
- respiration area under curve [2]: inactive: 3650

SMILES: COC1OC(CO)C(O)C(O)C1O [Alpha-Methyl-D-Galactoside]
- respiration area under curve [1]: inactive: 1430
- respiration area under curve [2]: active: 10900

SMILES: NCC(=O)N1CCC[C@H]1C(=O)O [Glycyl-L-Proline]
- respiration area under curve [1]: inactive: 6530
- respiration area under curve [2]: active: 10900

SMILES: OCC1OC(OC2C(CO)OC(O)C(O)C2O)C(O)C(O)C1O [D-Cellobiose]
- respiration area under curve [1]: inactive: 2310
- respiration area under curve [2]: active: 10700

SMILES: CC(O)C(C)O (stereo not given) [2,3-Butanediol]
- respiration area under curve [1]: inactive: 7490
- respiration area under curve [2]: inactive: 4150

SMILES: OC[C@H]1O[C@@H](O[C@@H]2[C@@H](CO)OC(O)(CO)[C@H]2O)[C@H](O)[C@@H](O)[C@H]1O (mixture of isomers) [Lactulose]
- respiration area under curve [1]: inactive: 1600
- respiration area under curve [2]: active: 10200

SMILES: NCCCC(=O)O [Gamma-Amino Butyric Acid]
- respiration area under curve [1]: active: 11200
- respiration area under curve [2]: active: 10900

SMILES: O=C1CCC(C(=O)O)O1 (stereo not drawn) [Alpha-Hydroxy Glutaric Acid-Gamma-Lactone]
- respiration area under curve [1]: inactive: 2010
- respiration area under curve [2]: inactive: 3090

SMILES: C[C@@H](N)C(=O)O [D-Alanine]
- respiration area under curve [1]: active: 11400
- respiration area under curve [2]: active: 11900

SMILES: O=C(CO)[C@@H](O)[C@@H](O)[C@H](O)CO [D-Tagatose]
- respiration area under curve [1]: inactive: 1790
- respiration area under curve [2]: active: 11500

SMILES: CCCC(=O)C(=O)O [Alpha-Keto-Valeric Acid]
- respiration area under curve [1]: active: 10800
- respiration area under curve [2]: inactive: 3090

SMILES: CC(O)CO (stereo not given) [1,2-Propanediol]
- respiration area under curve [1]: inactive: 1530
- respiration area under curve [2]: inactive: 3690

SMILES: CC(O)CC(=O)O (stereo not drawn) [Beta-Hydroxy Butyric Acid]
- respiration area under curve [1]: active: 11400
- respiration area under curve [2]: active: 10900

SMILES: O=C(CO)[C@@H](O[C@H]1O[C@H](CO)[C@@H](O)[C@H](O)[C@H]1O)[C@H](O)[C@H](O)CO [Turanose]
- respiration area under curve [1]: inactive: 2030
- respiration area under curve [2]: active: 10300

SMILES: O=C[C@H](O)[C@@H](O)[C@H](O)[C@H](O)COP(=O)(O)O [D-Glucose-6-Phosphate]
- respiration area under curve [1]: inactive: 1860
- respiration area under curve [2]: active: 13400

SMILES: OCC(O)C(O)C(O)CO (stereo not given) [Adonitol]
- respiration area under curve [1]: inactive: 1540
- respiration area under curve [2]: active: 11000

SMILES: CC(N)=O [Acetamide]
- respiration area under curve [1]: inactive: 1790
- respiration area under curve [2]: inactive: 3960
